Some of the results follow. Rule as the data show it: active = 3.2 or more and inactive = the rest. Only a few entries rise above the background.
B1: SETD2_Y770_V768L (peptide)
chain: VMTLDYSKTVV
B2: SETX_Y1297 (peptide)
chain: GPRKAYELSQR
B3: SERPINB1_Y84 (peptide)
chain: KRGASYILKLA
B4: SGSH_Y174 (peptide)
chain: RPFFLYVAFHD
B5: SGMS2_Y59_YF (peptide)
chain: KKFPDYIQIAM
B6: SGSH_Y89_H84Y (peptide)
chain: YQNGMYGLHQD
B7: SH3PXD2B_Y45 (peptide)
chain: AIYRRYSKFFD
B8: SERPINA1_Y184_Q180E (peptide)
chain: KEINDYVEKGT
B9: SGSH_Y240_R245H (peptide)
chain: DLAAQYTTVGH
B10: SHC4_Y403_Q400H (peptide)
chain: TEHMAYCPIQC
B11: SF3B1_Y570_R568H (peptide)
chain: DLVHPYVHKIL
B12: SGSH_Y240_D235V (peptide)
chain: VLAAQYTTVGR
B13: SETX_Y1297_R1294C (peptide)
chain: GPCKAYELSQR
B14: SERPINB1_Y84_A82V (peptide)
chain: KRGVSYILKLA
B15: SF3B1_Y570 (peptide)
chain: DLVRPYVHKIL
B16: SH3PXD2B_Y45_R43W (peptide)
chain: AIYWRYSKFFD
B17: SERPING1_Y294_W299R (peptide)
chain: LLNAIYLSAKR
B18: SHB_Y297_G293S_YF (peptide)
chain: KSIQLYDTPFE
B19: SET_Y119_H118Y (peptide)
chain: EEALYYLTRVE

biological target: SHP2 C-SH2 domain E139D; assay: enrichment score (SH2-bound / input frequency) (ratio); bacterial display of known human phosphotyrosine sites (pTyr-Var adds point mutants) read by sequencing; higher = stronger binding; tyrosines were phosphorylated by kinases first; conditions: peptide library: pTyr-Var
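Also: displayed peptides selected on beads carrying the immobilized SH2 domain, with library peptides lacking any tyrosine serving as negative controls.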

Enrichment score, inactive:
B1 1.06, B2 0.548, B3 2.77, B4 0.391, B5 1.29, B6 0.865, B7 0.24, B8 0.763, B9 0.777, B10 0.854, B11 1.46, B12 0.703, B13 0.768, B14 1.34, B15 1.05, B16 0.887, B17 1.92, B18 0.967, B19 1.2

biological target: SHP2 C-SH2 domain wild-type; assay: as above; conditions: peptide library: pTyr-Var

Enrichment score, inactive:
B1 1.05, B2 0.6, B3 2.16, B4 0.272, B5 1.03, B6 0.795, B7 0.325, B8 0.765, B9 1.52, B10 0.884, B11 1.37, B12 1.83, B13 1.08, B14 1.24, B15 1.12, B16 1.02, B17 1.8, B18 0.856, B19 1.09

biological target: SHP2 N-SH2 domain L43F; assay: as above; conditions: peptide library: pTyr-Var

Enrichment score, inactive:
B1 1.2, B2 0.554, B3 2.34, B4 0.755, B5 1.12, B6 0.829, B7 0.343, B8 0.681, B9 1.05, B10 0.727, B11 1.08, B12 1.16, B13 1.04, B14 1.03, B15 1.29, B16 1.03, B17 1.86, B18 1.15, B19 1.32

biological target: SHP2 N-SH2 domain T42A; assay: as above; conditions: peptide library: pTyr-Var

Enrichment score, inactive:
B1 0.824, B2 0.564, B3 1.85, B4 0.351, B5 0.967, B6 0.711, B7 0.338, B8 0.665, B9 2.01, B10 0.729, B11 1.28, B12 1.35, B13 0.696, B14 0.962, B15 1.31, B16 1, B17 1.59, B18 0.79, B19 0.976

biological target: SHP2 N-SH2 domain T52S; assay: as above; conditions: peptide library: pTyr-Var

Enrichment score, inactive:
B1 1.07, B2 0.659, B3 2.29, B4 0.358, B5 1.42, B6 0.818, B7 0.329, B8 0.779, B9 1.09, B10 0.718, B11 1.07, B12 1.07, B13 0.862, B14 1.1, B15 1.15, B16 0.707, B17 2.06, B18 1, B19 1.08

biological target: SHP2 N-SH2 domain wild-type; assay: as above; conditions: peptide library: pTyr-Var

Enrichment score, inactive:
B1 1.02, B2 0.671, B3 2.18, B4 0.414, B5 1.01, B6 0.662, B7 0.245, B8 0.789, B9 0.757, B10 1.02, B11 1.45, B12 0.97, B13 0.848, B14 1, B15 0.979, B16 1.12, B17 1.44, B18 1.05, B19 0.974

Reference: the supplement of paper PMC10369915
